{"source": "paper PMC6919601", "about": "“Identification of Plasmodium dipeptidyl aminopeptidase allosteric inhibitors by high throughput screening” (PLoS ONE, 2019)", "note": "Among all 110,000 compounds or so, about 230 (0.21%) showed an effect of 50% or more. The list shows a part of the results.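 Further: 30 min substrate incubation versus DMSO and 10 µM JCP410 controls.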", "data": [{"biological_target": "DPAP1 (Plasmodium falciparum, UniProt Q8IIJ9)", "sequence (Q8IIJ9 whole entry, looked up)": "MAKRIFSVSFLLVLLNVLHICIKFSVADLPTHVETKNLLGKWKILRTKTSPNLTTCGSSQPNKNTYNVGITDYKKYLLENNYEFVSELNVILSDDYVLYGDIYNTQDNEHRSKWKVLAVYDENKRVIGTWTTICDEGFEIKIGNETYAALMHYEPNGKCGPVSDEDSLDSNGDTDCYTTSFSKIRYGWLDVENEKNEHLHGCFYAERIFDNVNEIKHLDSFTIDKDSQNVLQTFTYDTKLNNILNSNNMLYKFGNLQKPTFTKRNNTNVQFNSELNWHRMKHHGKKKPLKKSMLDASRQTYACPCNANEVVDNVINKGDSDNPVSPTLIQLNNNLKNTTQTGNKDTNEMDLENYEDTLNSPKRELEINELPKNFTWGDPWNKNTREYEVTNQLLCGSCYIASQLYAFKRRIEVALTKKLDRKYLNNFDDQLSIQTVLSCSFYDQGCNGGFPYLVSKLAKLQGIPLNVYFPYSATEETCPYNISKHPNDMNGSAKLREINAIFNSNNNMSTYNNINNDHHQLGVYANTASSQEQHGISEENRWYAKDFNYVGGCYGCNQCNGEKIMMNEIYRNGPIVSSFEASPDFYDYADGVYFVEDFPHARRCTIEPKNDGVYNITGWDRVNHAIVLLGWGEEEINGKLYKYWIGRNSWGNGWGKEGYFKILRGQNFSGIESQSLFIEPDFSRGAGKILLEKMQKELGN", "test": "primary screen, percent inhibition; read by cleavage of a fluorogenic dipeptide substrate; higher = more effect of the substance", "set-up": "species or system P. falciparum D10 trophozoite lysates; single well", "units": {"% Inhibition @ 10 uM": "%"}, "values": [{"molecule": "CC(C)(C)NC(=O)c1cccc2c1-c1ccccc1C2=O", "% Inhibition @ 10 uM": -8.44}, {"molecule": "Cc1ccc(N2C(=O)C3CC=CCC3C2=O)cc1C", "note": "(centres unmarked)", "% Inhibition @ 10 uM": 8.06}, {"molecule": "O=C(O)C1CC=CCC1C(=O)Nc1ccc(N2CCN(c3ccc(Cl)cc3)CC2)cc1", "note": "(centres unmarked)", "% Inhibition @ 10 uM": -8.41}, {"molecule": "CCSc1nc2ccccc2c(=O)n1-c1ccccc1", "% Inhibition @ 10 uM": -3.37}, {"molecule": "CC(C)C[C@H](NC(=O)C1CCCCC1)C(=O)NCC#N", "% Inhibition @ 10 uM": -4.72}, {"molecule": "Cc1nc2ccccc2c(O)c1Cc1c(C)nc2ccccc2c1O", "% Inhibition @ 10 uM": -6.71}, {"molecule": "CCC1CCCCN1C(=O)CS(=O)(=O)Cc1nc(-c2ccc(C)cc2)oc1C", "note": "(centres unmarked)", "% Inhibition @ 10 uM": -1.89}, {"molecule": "CCOC(=O)N1CCc2c(sc3nc(SCC(N)=O)n(-c4ccc(Cl)cc4)c(=O)c23)C1", "% Inhibition @ 10 uM": 3.65}, {"molecule": "CC(C)OCCCNC(=O)c1cc(-c2ccccc2)c(N2CCCCC2)s1", "% Inhibition @ 10 uM": -2.1}, {"molecule": "O=C(NCCO)c1ccc2[nH]c3c(c2c1)CCCC3", "% Inhibition @ 10 uM": -1.33}, {"molecule": "CCc1ccc(-c2csc(NC(=O)c3ccco3)n2)cc1", "% Inhibition @ 10 uM": 1.35}, {"molecule": "c1cncc(CN2CCN(C3CC4CCC3C4)CC2)c1", "note": "(centres unmarked)", "% Inhibition @ 10 uM": -0.0494}, {"molecule": "CC1=C(C(=O)Nc2cc(C)ccn2)C(c2ccc(Cl)cc2)C2=C(O)CCCC2=N1", "note": "(centres unmarked)", "% Inhibition @ 10 uM": 2.7}, {"molecule": "Cc1ccc(C(c2ccccc2)C2C(=O)c3ccccc3C2=O)c(C)c1", "note": "(centres unmarked)", "% Inhibition @ 10 uM": 15.1}, {"molecule": "COc1ccc(S(=O)(=O)c2c(SC)n[nH]c2N)cc1", "% Inhibition @ 10 uM": 3.99}, {"molecule": "Cc1nc2ccccc2c2oc(C(=O)N3CCc4ccccc4C3)cc12", "% Inhibition @ 10 uM": -3.45}, {"molecule": "COc1ccc(/C=C/C(=O)Nc2c3c(nc4c2CCC4)CCCC3)cc1OC", "% Inhibition @ 10 uM": 1.91}, {"molecule": "Cc1ccc2nc(NC(=O)C(NS(=O)(=O)c3cccc4nsnc34)C(C)C)sc2c1", "note": "(centres unmarked)", "% Inhibition @ 10 uM": -0.465}, {"molecule": "CCCN1CC2=C(N=C(S)NC2c2cccc3ccccc23)/C(=C/c2cccc3ccccc23)C1", "note": "(centres unmarked)", "% Inhibition @ 10 uM": -0.415}, {"molecule": "O=[N+]([O-])c1cccc(-c2nnnn2-c2ccccc2)c1", "% Inhibition @ 10 uM": -5.73}, {"molecule": "O=C(NCCc1ccccc1)c1cc(-c2ccco2)on1", "% Inhibition @ 10 uM": -5.77}, {"molecule": "CSc1nc(O)c2c(n1)N=C1CCCC(O)=C1C2c1ccc(C)cc1", "note": "(centres unmarked)", "% Inhibition @ 10 uM": -2.04}, {"molecule": "COc1cccc(/C=C(\\C#N)c2nc(-c3ccccc3)cs2)c1", "% Inhibition @ 10 uM": 1.83}, {"molecule": "CC(C)(C)C(=O)NCCNC(=O)c1nonc1N", "% Inhibition @ 10 uM": -3.53}, {"molecule": "CCOc1ccc2c(=O)c(Oc3ccccc3)c(C(F)(F)F)oc2c1", "% Inhibition @ 10 uM": -4.21}, {"molecule": "O=C(NCCc1ccc(Cl)cc1)C1(NS(=O)(=O)c2cccc3cccnc23)CCCCC1", "% Inhibition @ 10 uM": -6.07}, {"molecule": "COc1ccc(OCCCN2CCOCC2)cc1", "% Inhibition @ 10 uM": 2.22}, {"molecule": "Cc1nnc2c3c4c(sc3ncn12)CCC4", "% Inhibition @ 10 uM": -2.32}, {"molecule": "O=C(Cn1nc(C(F)(F)F)cc1C1CC1)Nc1ccc(Cl)cc1", "% Inhibition @ 10 uM": 1.57}, {"molecule": "Brc1ccccc1Cn1cnc2ccccc21", "% Inhibition @ 10 uM": 1.8}, {"molecule": "CCOC(=O)CN1CCN(c2cccc(C)c2C)CC1", "% Inhibition @ 10 uM": 3.01}, {"molecule": "Cc1nn(-c2ccccc2)c(Cl)c1C(=O)NC1CCCCC1", "% Inhibition @ 10 uM": -0.85}, {"molecule": "CCOc1ccc(CNC(=O)CCCn2ccc3cc(S(=O)(=O)N4CCCC4)ccc32)cc1", "% Inhibition @ 10 uM": 9.49}, {"molecule": "O=C(CCCC(=O)c1ccccc1)Nc1nc2ccc(Br)cc2s1", "% Inhibition @ 10 uM": -5.03}, {"molecule": "Cc1ccc(S(=O)(=O)Nc2ccc(S(=O)(=O)Nc3cc(C)cc(C)c3)cc2)cc1", "% Inhibition @ 10 uM": -1.21}, {"molecule": "CCOC(=O)c1c(C)n(C)c2ccc(OCC(O)CN3C(=O)c4ccccc4S3(=O)=O)cc12", "note": "(centres unmarked)", "% Inhibition @ 10 uM": -1.33}, {"molecule": "Cc1ccccc1OCC(=O)Nc1ccc(S(=O)(=O)N2CCc3ccccc32)cc1", "% Inhibition @ 10 uM": -0.511}, {"molecule": "COCCNC(=O)c1ccc(CSc2nc3ccncc3n2Cc2ccccc2F)cc1", "% Inhibition @ 10 uM": -0.12}, {"molecule": "c1ccc(-c2noc(C34CC5CC(CC(C5)C3)C4)n2)cc1", "% Inhibition @ 10 uM": -1.32}, {"molecule": "COC(=O)C1=C(O)/C(=C\\c2cccc(Cl)c2)N=C1C", "% Inhibition @ 10 uM": 2.05}, {"molecule": "CCOC(=O)N1CCN(Cc2nnc(-c3ccc4c(c3)OCO4)o2)CC1", "% Inhibition @ 10 uM": 3}, {"molecule": "Cc1c(Cl)cccc1-c1ccc(C=C2C(=O)OC(C)(C)OC2=O)o1", "% Inhibition @ 10 uM": -1.25}, {"molecule": "Cc1ccccc1-c1nnc(SCC(=O)N2CCC(C)CC2)o1", "% Inhibition @ 10 uM": 2.97}, {"molecule": "CCc1nc2sc(C(N)=O)c(N)c2cc1C", "% Inhibition @ 10 uM": 1.84}, {"molecule": "COc1ccccc1NC1=C(Cl)C(=O)N(c2ccc(C)cc2)C1=O", "% Inhibition @ 10 uM": 1.03}, {"molecule": "O=C(CN1C(=O)CSc2ncccc21)NCCN1CCOCC1", "% Inhibition @ 10 uM": 1.03}, {"molecule": "COCCN1CN(Cc2ccco2)CC2=C1CC(c1ccccc1)CC2=O", "note": "(centres unmarked)", "% Inhibition @ 10 uM": 3.54}, {"molecule": "CCCCNC(=O)CCN1N=C(c2ccccc2)CCC1=O", "% Inhibition @ 10 uM": 3.93}, {"molecule": "CC1=C(C(=O)OCC2CCCO2)C(c2ccccc2C)CC(=O)N1", "note": "(centres unmarked)", "% Inhibition @ 10 uM": -1}, {"molecule": "CCOCCCNS(=O)(=O)c1c(C)nc2scc(C)n2c1=O", "% Inhibition @ 10 uM": -2.7}]}]}
